Here are results for 88 molecules from PubChem BioAssay AID463173 (ICCB-Longwood Screening Facility, Harvard Medical School, 2010).

Out of some 52,000 compounds screened, about 4,300 (8.3%) were called active. Cut-off read from the data, not from the text of the source: active = survival mostly below about 52% (no sharp cut-off); inactive = mostly above about 56%. This is one part of the list.

This test relates to DeltatarO mutant. The test can be described thus: S. aureus survival, RN4220 and DeltatarO strains – OD600, teichoic acid synthesis inhibitors, primary screen (AID 463173). The conditions noted are these: S. aureus RN4220 wild type/DeltatarO growth, OD600, 18 h, active compounds read low, screened at 18.75 µg/mL (by protocol).
Take `CCOc1ccccc1CNC(=O)c1cnc2sc(N(CC)CC)nn2c1=O`: the survival is inactive: 99%.

As for `CC(C)CN(CCNC(=O)c1cc(-c2cccs2)nc2ccccc12)CC(C)C`, the survival was inactive: 52%.

`CCOC(=O)c1cc(-c2ccccc2)n(CCCC(=O)Nc2ccccc2C)c1C`: the survival is inactive: 90%.

`COc1ccc(-n2ccnc(NCc3ccccc3Cl)c2=O)cc1OC`: the survival is inactive: 81%.

As to `COc1ccc(C(=O)c2oc3ccccc3c2NC(=O)c2cccc(OC)c2)cc1`, the survival is inactive: 58%.

For `CCc1cccc(NC(=O)Cn2c(=O)n3nc(-c4cccc(F)c4)nc3c3ccccc32)c1`, the survival is active: 52%.

For `CCOc1cc2[nH]c(=O)n(CCCCC(=O)N3CCN(c4ccccc4OC)CC3)c(=O)c2cc1OCC`, the survival is inactive: 74%.

In the case of `C=CCn1c(SCc2cccnc2)nnc1-c1ccncc1`, the survival was inactive: 88%.

Take `Cc1ccccc1C(=O)Nc1sc2c(c1C(=O)N1CCC(C)CC1)CCC(C)C2` (stereo not drawn): the survival is active: -3%.

In the case of `CCOC(=O)C1CCCN(c2c(C(=O)c3ccccc3)cnc3ccc(F)cc23)C1` (stereo not drawn), the survival is active: 35%.

Take `Cc1ccccc1CS(=O)(=O)Cc1ccc(C(=O)NCCc2ccc(Cl)cc2)o1`: the survival was inactive: 76%.

For `Cc1cn2c(=O)cc(COC(=O)c3ccc(NC(=O)c4ccccc4C)cc3)nc2s1`, the survival is inactive: 101%.

For `COc1ccc2c(c1)c1c(c(=O)n(-c3ccc(OC)c(OC)c3)c(=O)n1Cc1ccc(F)cc1)n2C`, the survival is inactive: 99%.

`CC(CNC(=O)c1ccc(Cn2c(=O)c3cccn3c3cccnc32)cc1)c1ccccc1` (stereo not drawn): the survival is active: 41%.

For `COc1ccc(-c2c(C)c3cc(OC(=O)N4CCOCC4)ccc3oc2=O)cc1OC`, the survival is active: 47%.

For `CNC(=O)C(C)SCc1ccccc1` (stereo not drawn), the survival was inactive: 77%.

On to `COc1cc(CNC(=O)c2ccc3nc(Cc4ccccc4)oc3c2)cc(OC)c1OC`, for which the survival was inactive: 144%.

With `COc1cccc(C(=O)CC2(O)C(=O)N(Cc3ccccc3)c3ccccc32)c1` (stereo not drawn), the survival was inactive: 175%.

Turning to `NC(=O)Cn1c(=O)n(CCCCCC(=O)NCc2ccc3c(c2)OCO3)c(=O)c2sccc21`, the survival was inactive: 113%.

`C=CCn1c(SC(C)C)nc2sc3c(c2c1=O)CCCC3`: the survival is inactive: 71%.

Regarding `Cc1ccc(-c2nn3c(=O)cc(CN4CCN(C(=O)Nc5cccc(C(F)(F)F)c5)CC4)nc3s2)cc1`, the survival was inactive: 89%.

For `Cc1ccc(CCNC(=O)c2cnc3c(-c4ccc(F)cc4)c(C)nn3c2C)cc1`, the survival is inactive: 126%.

With `Clc1ccc(-c2noc3ncnc(NC4CCCCC4)c23)cc1`, the survival was active: 21%.

Consider `COc1ccc(OC)c(C2CC(=O)c3c([nH]c(C(=O)OCc4ccc(C)cc4)c3C)C2)c1` (stereo not drawn), for which the survival is inactive: 73%.

`O=C(Oc1ccc2c(=O)c(Cl)coc2c1)c1cccnc1`: the survival is inactive: 76%.

Regarding `Cc1ccccc1NC(=O)COc1ccc2oc3c(c2c1)CCCC3`, the survival was inactive: 150%.

Turning to `CCOC(=O)N1CCC(NC(=O)c2cnn(-c3ccc(OC)cc3)c2C2CCN(C(=O)OC(C)(C)C)CC2)CC1`, the survival is inactive: 84%.

As to `Cc1ccc(Cn2c(=O)c3cccnc3n(Cc3ccc(C)cc3)c2=O)cc1`, the survival is inactive: 79%.

For the molecule `COc1ccc(-c2cc3nc(C)c(CCC(=O)NCCc4ccc(Cl)cc4)c(C)n3n2)c(OC)c1`, the survival was inactive: 78%.

On to `O=C(CN1C(=O)COc2ccc(S(=O)(=O)N3CCCCCC3)cc21)N1CCN(c2ccc(F)cc2)CC1`, for which the survival was inactive: 67%.

With `Cc1ccc(Cn2c(=O)n(-c3cccc(C(F)(F)F)c3)c(=O)c3c(C)c(C)sc32)c(C)c1`, the survival was inactive: 97%.

On to `Cc1ccc(CSc2ncc(Cl)c(C(=O)Oc3ccccc3F)n2)cc1`, for which the survival is inactive: 101%.

Regarding `Cc1cn(C)c(CC(=O)Nc2cccc(C#N)c2)c1C(=O)O`, the survival is inactive: 95%.

For `COc1ccc(N2CCN(c3nc4ccc(C(=O)c5ccccc5)cc4n4cnnc34)CC2)cc1`, the survival is inactive: 77%.

For `Cc1cccc2c1-c1sc(C(=O)NCCCN3CCN(c4ccccc4F)CC3)cc1CO2`, the survival is inactive: 63%.

For the molecule `CCOc1ccc(CN2CCN(Cc3ccc4c(c3)c3ccccc3n4CC)CC2)cc1`, the survival was active: 0%.

For the molecule `O=C(CCn1c(=O)c2ccccc2n(Cc2cccc(F)c2)c1=O)NCc1ccc2c(c1)OCO2`, the survival is inactive: 99%.

For `Cc1ccc(-c2c(C(=O)N3CCN(c4ccc(F)cc4)CC3)oc(=O)c3ccccc23)cc1`, the survival was inactive: 103%.

For `COc1cc(OC)c(OC)cc1CN1CCc2nc(N3CCN(C)CC3)ncc2C1`, the survival is inactive: 84%.

Consider `Cc1cc(C)cc(N2C(=O)N(Cc3cc(=O)n4ccccc4n3)c3ccccc3S2(=O)=O)c1`, for which the survival is inactive: 117%.

As for `CCOc1ccc(C(=O)/C=C/c2cn(CC(O)CN3CCc4ccccc43)c3ccccc23)cc1` (stereo not drawn), the survival was inactive: 56%.

As for `CCOC(=O)C1=C(C)NC(=O)NC1c1c(O)ccc2ccccc12` (stereo not drawn), the survival is inactive: 99%.

Regarding `CCc1nn(CC(=O)NCc2ccc(C)cc2)c(=O)c2cc3occc3n12`, the survival is inactive: 105%.

On to `CC(C)Oc1ccc(CNC(=O)c2ccc3c(c2)nc2n3CCOC2)cc1`, for which the survival was inactive: 83%.

Take `COc1cc(NC(=O)N2CCSc3ccccc32)cc(OC)c1OC`: the survival was active: 52%.

Take `CCN(c1ccccc1C)S(=O)(=O)c1nnc(NC(=O)c2ccccc2C)s1`: the survival is active: 15%.

Turning to `COc1ccc(NC(=O)Cc2c(C(=O)O)[nH]c3ccccc23)cc1OC`, the survival was inactive: 76%.

`NC(=O)CSc1nnc2c(n1)CCCC2`: the survival is inactive: 83%.

On to `O=C(CCS(=O)(=O)c1nc(-c2ccc3c(c2)OCO3)cc(C(F)(F)F)n1)Nc1ccc(Br)cc1`, for which the survival is inactive: 94%.

As to `Cc1ccc(NC(=O)c2oc3ccc(S(=O)(=O)N4CCOCC4)cc3c2C)c(C)c1`, the survival is inactive: 125%.

For `COc1ccc(C(=O)Nc2ccc3nc4c(c(Nc5ccccc5OC)c3c2)CCCC4)c(OC)c1`, the survival was active: 48%.

`COc1cc(C2c3c(oc4ccc(F)cc4c3=O)C(=O)N2Cc2ccc3c(c2)OCO3)ccc1O` (stereo not drawn): the survival was inactive: 101%.

In the case of `O=C1CC(c2c(F)cccc2Cl)c2c(ccc3ccccc23)N1` (stereo not drawn), the survival is inactive: 72%.

Take `CCCCN(CC)C(=O)c1c[nH]c2ccc(S(=O)(=O)N(C)c3ccc(Cl)cc3)cc2c1=O`: the survival was inactive: 95%.

For the molecule `COC(=O)c1cccnc1-n1c(=O)c2cccnc2n(CC(=O)Nc2cccc(C)c2)c1=O`, the survival was inactive: 149%.

For `CCOC(=O)c1ccccc1NC(=O)CN1C(=O)CC(c2ccccc2)Sc2ccccc21` (stereo not drawn), the survival was inactive: 92%.

`Fc1ccccc1N1CCN(c2ncnc3onc(-c4ccc(Cl)cc4)c23)CC1`: the survival is active: 54%.

Turning to `COc1ccc(Cl)cc1NC(=O)CSc1nc2c(oc3ccccc32)c(=O)n1Cc1ccco1`, the survival is inactive: 74%.

In the case of `Cc1ccc(C(=O)Nc2ccc(C(=O)O)cc2)cc1S(=O)(=O)N1CCC(C)CC1`, the survival is inactive: 73%.

Consider `Cc1cccc(-c2nc3scc(CCNS(=O)(=O)c4ccc(F)c(C(F)(F)F)c4)n3n2)c1`, for which the survival is inactive: 83%.

Turning to `CCCCOc1ccc(C(=O)NCc2cn3cccc(C)c3n2)cc1`, the survival was inactive: 85%.

As to `CCCCOc1ccc(C(=O)NCCc2sc3nc(-c4ccc(OC)cc4)nn3c2C)cc1`, the survival was inactive: 91%.

Turning to `CCOc1cc2c(cc1OCC)C(CC(=O)O)N(C(=O)Nc1ccc(Br)c(C)c1)CC2` (stereo not drawn), the survival was inactive: 81%.

For the molecule `O=C(Nc1ccc(N2CCN(c3ccc(F)cc3)CC2)c(C(=O)O)c1)c1cccs1`, the survival was inactive: 89%.

Take `Cc1ccc(NC(=O)/C=C/c2ccco2)cc1F`: the survival is inactive: 99%.

As for `CCOc1ccc(N(C)C(=O)C2CCN(S(=O)(=O)c3c(C)noc3/C=C/c3ccc(C)cc3)CC2)cc1`, the survival was inactive: 107%.

Consider `CCN(CC)c1nn2c(=O)c(C(=O)NCCc3ccccc3C)cnc2s1`, for which the survival was inactive: 117%.

`O=C(NCc1ccc(Cl)cc1)C1CCC(CNS(=O)(=O)c2ccccc2)CC1` (stereo not drawn): the survival is inactive: 97%.

Consider `Cc1cccc(CN2CCN(CC(=O)NCCc3ccc(Cl)cc3)C2=O)c1`, for which the survival was inactive: 59%.

As to `CCCCNC(=O)c1c[nH]c2ccc(C)cc2c1=O`, the survival was inactive: 89%.

`COc1ccc(CNC(=O)C2CC(O)CN2C(=O)Nc2ccccc2)cc1` (stereo not drawn): the survival is inactive: 84%.

On to `Cc1nc2ccc(C(=O)N3CCN(Cc4ccccc4)CC3)cc2[nH]1`, for which the survival is inactive: 104%.

`CCCCCSc1nnc2c(n1)[nH]c1c(C)cccc12`: the survival was inactive: 79%.

Consider `COCCn1c(SCC(=O)c2ccc(C)cc2)nc2cc(C(=O)NC3CCCC3)ccc2c1=O`, for which the survival is inactive: 89%.

For `FC(F)(F)c1cc(Nc2nc3ccccc3c3nncn23)ccc1Cl`, the survival is inactive: 91%.

With `Nc1nc2c3cccc4cccc(c(=O)n2n1)c43`, the survival was inactive: 73%.

With `O=C(NCCc1ccccc1)C1CCN(c2nc3ccccc3nc2C(F)(F)F)CC1`, the survival was inactive: 102%.

In the case of `CCCNC(=O)c1cnn(-c2ccc(C)c(C)c2)c1C1CCN(C(=O)OC(C)(C)C)CC1`, the survival is inactive: 90%.

Take `COc1ccc(NC(=O)c2ccco2)cc1NC(=O)c1ccc(C#N)cc1F`: the survival is inactive: 116%.

Turning to `O=C(NCCNC1CCCC1)c1cccs1`, the survival is inactive: 113%.

For `Cc1c(C(=O)Nc2ccc(F)c(Cl)c2)sc2nc3n(c(=O)c12)CCC3`, the survival was inactive: 58%.

`O=C(Cn1c(=O)c(CNc2ccccc2)cc2cc3c(cc21)OCCO3)Nc1ccccc1Cl`: the survival is inactive: 131%.

For `CC(C)(C)OC(=O)N1CCC(c2c(C(=O)NCCN3CCOCC3)cnn2-c2cccc(Cl)c2)CC1`, the survival was inactive: 67%.

Take `O=C(C1CC1)N1CCc2cc(Br)cc(S(=O)(=O)Nc3ccc(F)c(F)c3)c21`: the survival is inactive: 110%.

Turning to `CCCOc1ccc(C(=O)N2CCC(c3nc4ccccc4s3)CC2)cc1`, the survival was active: 36%.

With `CCc1ccc(/C=C(/C#N)c2nc(-c3ccc(C)cc3)cs2)cc1`, the survival is active: 8%.

In the case of `Cc1cc(C)cc(N2CCn3c2nc2c3c(=O)n(Cc3c(F)cccc3Cl)c(=O)n2C)c1`, the survival was inactive: 89%.

Turning to `Cc1cccc(NC(=O)CSc2nc3n[nH]c(C)c3c(=N)n2-c2cccc(Cl)c2)c1`, the survival was inactive: 55%.
